{
  "source": "PubChem BioAssay AID1346428",
  "about": "(National Center for Advancing Translational Sciences (NCATS), 2018)",
  "note": "Where “and” joins values, the source holds several entries; their conditions need not be identical. Equal entries are not always repeated. Hit rate of the full screen: of about 48,000 compounds, about 1,200 (2.5%) were called active. Not shown: some 2% with an inconclusive outcome.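 The calls were made as follows: active = activation of at least 60% and not above a set upper limit (about 1 call in 100 departs from these limits); inconclusive = activation of 40% to 60%, or above that upper limit; inactive = activation under 40%.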 Some of the results follow.",
  "data": [
    {"target": "Probable G-protein coupled receptor 32 (Homo sapiens) (UniProt O75388)", "sequence (O75388 whole entry, looked up, the tested form may be a part)": "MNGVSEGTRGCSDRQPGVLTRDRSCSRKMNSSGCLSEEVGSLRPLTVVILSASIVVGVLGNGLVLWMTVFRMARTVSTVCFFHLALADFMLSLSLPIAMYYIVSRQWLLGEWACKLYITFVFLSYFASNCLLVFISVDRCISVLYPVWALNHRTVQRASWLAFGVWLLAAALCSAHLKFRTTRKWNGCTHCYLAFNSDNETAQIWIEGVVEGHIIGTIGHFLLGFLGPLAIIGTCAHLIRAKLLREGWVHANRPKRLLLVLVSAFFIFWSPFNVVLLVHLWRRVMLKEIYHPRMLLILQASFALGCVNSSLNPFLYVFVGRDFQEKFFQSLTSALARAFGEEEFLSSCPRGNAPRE", "assay": "qHTS for Agonists of Human Resolvin D1 Receptor DRV1; also: 0% is about no effect", "conditions": "CHO-K1 GPR32 beta-arrestin PathHunter luminescence, 90 min; at 76.9 µM; stronger effect = higher value; zero percent set by DMSO-only wells", "method_in_brief": "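GPR32 activation in stably transfected CHO-K1 cells, detected as beta-arrestin recruitment by enzyme-fragment complementation. Compound exposure: 90 min, 37 °C.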", "values": [
      {"smiles": "COC(=O)c1cc(NC(=O)c2cc3c(-c4ccccc4F)nn(C)c3s2)cc(C(=O)OC)c1", "activation": "inactive: -7.27%"},
      {"smiles": "CCOC(=O)c1cc2c(=O)n3ccccc3nc2n(Cc2ccco2)c1=NC(=O)c1ccccc1Br", "activation": "inactive: -18.6%"},
      {"smiles": "COC(=O)c1cc2oc3ccccc3c2n1Cc1ccc(C)cc1", "activation": "inactive: -11.5%"},
      {"smiles": "Cc1c(Cl)cccc1Nc1nn2c(=O)c3ccccc3nc2s1", "activation": "inactive: -18.5%"},
      {"smiles": "Cc1ccccc1-c1noc(-c2ccc(NCC3CCCO3)c([N+](=O)[O-])c2)n1", "note": "(stereo not given)", "activation": "inactive: -20.2%"},
      {"smiles": "COc1ccccc1CNC(=O)CC(c1ccc(F)cc1)N1Cc2ccccc2C1=O", "note": "(stereo not given)", "activation": "inactive: -14.2%"},
      {"smiles": "Cc1cccc(N2CCN(S(=O)(=O)c3ccc(-c4cnc(C5CC5)o4)cc3)CC2)c1C", "activation": "inactive: 2.99%"},
      {"smiles": "Cc1ccc(Cn2c(SCC(=O)NCc3ccccc3)nc3ccsc3c2=O)cc1", "activation": "inactive: -15.6%"},
      {"smiles": "CCOc1ccc(NC(=O)Cn2c(=O)n(CCCC(=O)NCCc3ccc(Cl)cc3)c(=O)c3ccccc32)cc1", "activation": "inactive: -3.86%"},
      {"smiles": "COc1ccc(-c2[nH]c(-c3ccc(O)cc3)nc2-c2ccccc2)cc1", "activation": "inactive: -16.3%"},
      {"smiles": "Cc1ccc([N+](=O)[O-])cc1NC(=O)CN(c1ccccc1)S(=O)(=O)N(C)C", "activation": "inactive: -8.66%"},
      {"smiles": "Cc1oc(-c2ccccc2F)nc1CS(=O)(=O)CC(=O)N1CCN(c2ccccc2)CC1", "activation": "inactive: 25.9%"},
      {"smiles": "CCOC(=O)c1cccc(NC(=O)C(C)n2nc(C)c3c(C)n(-c4ccccc4)nc3c2=O)c1", "note": "(stereo not given)", "activation": "inactive: -2.67%"},
      {"smiles": "CNC(=O)Oc1ccc2c(c1)[C@]1(C)CCN(C)[C@@H]1N2C", "activation": "inactive: 4.79% and inactive: 9.5%"},
      {"smiles": "CCOC(=O)c1cccc(NC(=O)CCc2nc3cccnc3n2-c2ccccc2)c1", "activation": "inactive: 16.2%"},
      {"smiles": "CCOc1ccc(NC(=O)C2(c3cccs3)CCOCC2)cc1", "activation": "inactive: -13.8%"},
      {"smiles": "Cc1cc(C)c2sc(NC(=O)c3ccc(S(=O)(=O)N4CCCC4)cc3)nc2c1", "activation": "inactive: -11.4%"},
      {"smiles": "O=C1C(SCCO)=C(SCCO)C(=O)c2ccccc21", "activation": "inactive: -22.1%"},
      {"smiles": "COc1ccccc1C(=O)Nc1nc2nc(C)cc(=O)n2[nH]1", "activation": "inactive: 3.08%"},
      {"smiles": "O=C(CN1C(=O)COc2ccc(S(=O)(=O)NC3CCCC3)cc21)Nc1ccc(Cl)cc1F", "activation": "inactive: -16.5%"},
      {"smiles": "CCOC(=O)c1c(C)oc2ccc(N(C(=O)c3ccncc3)S(=O)(=O)c3ccc(CC)cc3)cc12", "activation": "inactive: -24.1%"},
      {"smiles": "COc1ccc(OC)c(S(=O)(=O)Nc2ccc3c(c2)n(C)c(=O)n3C)c1", "activation": "inactive: -19.4%"},
      {"smiles": "CCOC(=O)c1c(C)[nH]c(CCC(=O)Nc2cc(Cl)ccc2OC)c1C", "activation": "inactive: -20.4%"},
      {"smiles": "O=C(O)CSCC(=O)NC1CCSC1=O", "note": "(stereo not given)", "activation": "inactive: 1.1%"},
      {"smiles": "Cc1nc(N2CCOCC2)c2c(C(=O)NCc3ccc(Cl)cc3)c(C)oc2n1", "activation": "inactive: -9.27%"},
      {"smiles": "CCc1ccc(NC(=O)c2nc3nc(C)cc(C(F)F)n3n2)cc1", "activation": "inactive: 38.7%"},
      {"smiles": "CN(C)S(=O)(=O)N(CC(=O)Nc1ccc(C(F)(F)F)cc1)c1ccccc1", "activation": "inactive: 19.1%"},
      {"smiles": "Cc1ccc(OCCSc2nc3ccc(NC(=O)c4cccs4)cc3s2)cc1", "activation": "inactive: 42.7%"},
      {"smiles": "Cc1sc(-n2cccc2)c(C(C)NC(=O)Nc2cccc(C(F)(F)F)c2)c1C", "note": "(stereo not given)", "activation": "inactive: 31.3%"},
      {"smiles": "COc1cc(OC)cc(C(=O)NCCc2csc3nc(-c4ccccc4F)nn23)c1", "activation": "inactive: -1.41%"},
      {"smiles": "COCCOCC(OC)OC", "activation": "inactive: -9.13%"},
      {"smiles": "Cc1ccc(S(=O)(=O)N2CC=C(c3c(C)n(CC(=O)N4CCCC4)c4ccccc34)CC2)cc1C", "activation": "inactive: -21.1%"},
      {"smiles": "CCOc1cccc(C(=O)N(Cc2ccc(C)o2)C2CCS(=O)(=O)C2)c1", "note": "(stereo not given)", "activation": "inactive: -14.2%"},
      {"smiles": "COc1cccc(CNC(=O)c2cc(-c3ccc(Cl)cc3)n[nH]2)c1", "activation": "inactive: 5.39%"},
      {"smiles": "CCC(CC)c1nn2c(=O)cc(COc3ccc(NC(=O)c4cccc(C)c4)cc3)nc2s1", "activation": "inactive: -5.96%"},
      {"smiles": "O=C(CCC(=O)N1CCSc2ccccc21)Nc1ccc(Cl)cc1", "activation": "inactive: -21.8%"},
      {"smiles": "COc1ccccc1CNS(=O)(=O)c1cc(Br)cc2c1N(C(=O)C1CC1)CC2", "activation": "inactive: 9.58%"},
      {"smiles": "COc1ccc(CNc2nc(-c3ccc(Cl)cc3)nn2S(=O)(=O)c2ccc(C)cc2)cc1", "activation": "inactive: 33.5%"},
      {"smiles": "COc1ccc(CNC(=O)c2ccc3c(c2)N(Cc2cc(C)ccc2C)C(=O)CS3)cc1", "activation": "inactive: 9.38%"},
      {"smiles": "CC1=C(C(=O)Nc2cccc(Cl)c2C)C2(CCCCCC2)OC1=O", "activation": "inactive: -3.34%"},
      {"smiles": "CC1CCN(S(=O)(=O)c2ccc3c(c2)CCN3)CC1", "activation": "inactive: -26.6%"},
      {"smiles": "O=C(c1cnn(-c2ccc(F)cc2)c1-n1cccc1)N1CCN(c2ccc(F)cc2)CC1", "activation": "inactive: 19%"},
      {"smiles": "CCNc1nc(NCc2ccc(F)cc2)c2cnn(C)c2n1", "activation": "active: 72.2%"},
      {"smiles": "Nc1ccc2c3c(cccc13)C(=O)NC2=O", "activation": "inactive: 11.3%"},
      {"smiles": "O=c1[nH]cnc2[nH]ncc12", "activation": "inactive: 10.8% and inactive: 8.45%"},
      {"smiles": "CCc1ccc(S(=O)(=O)c2nnn3c2nc(Nc2cc(OC)ccc2OC)c2sccc23)cc1", "activation": "inactive: -6.08%"},
      {"smiles": "COc1ccccc1Nc1sc(C(=O)c2ccc(C)cc2C)c(N)c1S(=O)(=O)c1ccccc1", "activation": "inactive: -0.683%"},
      {"smiles": "O=S(=O)(NCCS(=O)(=O)N1CCN(c2ccccc2)CC1)c1ccc(Br)cc1", "activation": "inactive: -10.3%"},
      {"smiles": "COc1ccc(CC(=O)Nc2sc3c(c2C(=O)Nc2ccccc2)CCCCC3)cc1", "activation": "inactive: -6.06%"},
      {"smiles": "Cc1ccc(CCNC(=O)CS(=O)Cc2nc(-c3ccccc3Cl)oc2C)cc1", "note": "(stereo not given)", "activation": "inactive: -5.02%"},
      {"smiles": "Cc1c(C(=O)Nc2nc(-c3ccc(F)cc3)ns2)oc2ccc(Cl)cc12", "activation": "inactive: -7.08%"},
      {"smiles": "COc1ccccc1C(=O)Nc1ccccc1OCc1cc(=O)n2ccccc2n1", "activation": "inactive: -14%"},
      {"smiles": "O=C(Cc1ccccc1)Nc1sc2c(c1C(=O)Nc1ccc(Br)cc1)CCC2", "activation": "inactive: -18.6%"},
      {"smiles": "Cc1ccc2oc(C(=O)Nc3cccc(Cl)c3)cc(=O)c2c1", "activation": "inactive: 5.49%"},
      {"smiles": "O=C(NCCc1ccccc1)c1nc(-c2ccc(Cl)cc2)n2c1CCCCC2", "activation": "inactive: -49.9%"}
    ]}
  ]
}
